From PubChem BioAssay AID588453 (National Center for Advancing Translational Sciences (NCATS), 2011)
Values joined by “and” are separate entries in the source; they are usually repeats but may differ in a detail not shown here. Equal values may be shown once. The whole screen tested about 390,000 compounds, of which about 4,000 (1%) were called active. The inconclusive results got no clear call from the source; some entries with a clear call stand among them for comparison. Calls come from the whole dose curve; as a rule, active = well fitted inhibition curve with a large enough effect; inconclusive = small, poorly fitted or top-dose-only effect; inactive = no such curve, though single readings can be large or run the other way. Where the call is inconclusive, the potency comes from a doubtful curve fit.

Molecular target: Thioredoxin reductase 1, cytoplasmic (Rattus norvegicus) (UniProt O89049)
Chain of UniProt O89049 (O89049 whole entry, looked up): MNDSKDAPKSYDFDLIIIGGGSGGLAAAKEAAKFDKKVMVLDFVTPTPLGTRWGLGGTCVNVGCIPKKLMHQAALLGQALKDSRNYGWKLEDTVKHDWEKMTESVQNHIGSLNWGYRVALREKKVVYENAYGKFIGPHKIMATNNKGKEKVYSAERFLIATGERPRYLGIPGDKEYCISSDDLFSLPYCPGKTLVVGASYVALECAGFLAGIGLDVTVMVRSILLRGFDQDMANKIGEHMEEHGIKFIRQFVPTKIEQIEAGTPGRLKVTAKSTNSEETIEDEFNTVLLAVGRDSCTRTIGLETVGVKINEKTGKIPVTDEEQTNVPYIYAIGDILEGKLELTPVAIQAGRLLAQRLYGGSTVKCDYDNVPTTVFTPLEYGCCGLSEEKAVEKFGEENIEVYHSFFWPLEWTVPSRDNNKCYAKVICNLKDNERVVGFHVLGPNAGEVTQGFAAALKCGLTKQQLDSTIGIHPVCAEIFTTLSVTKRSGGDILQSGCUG
Experiment: qHTS Assay for Inhibitors of Mammalian Selenoprotein Thioredoxin Reductase 1 (TrxR1): qHTS; note: nearly all actives have a fitted effect of over 65% in size
Conditions: recombinant rTrxR1, NADPH fluorescence consumption, selenite substrate; series mostly up to 114 µM; activity change, negative = inhibition: at the top concentration
In short: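 Rat TrxR1 (90 nM in the dispensed reagent) was pre-reduced with 400 uM NADPH for 5 min at room temperature, then incubated with compound for 15 min. After 400 uM selenite was added, NADPH fluorescence (Ex 340/Em 450 nm) was followed for 8 min.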
% is set by controls: 0 for no effect and ±100 for the full control effect; potency is the fitted concentration of half-maximal effect; tags give direction and shape of the fitted curve.

| SMILES | activity change, negative = inhibition | Potency |
| --- | --- | --- |
| CC(=NCc1ccc2c(c1)OCO2)c1c(O)n(Cc2ccccc2)c(=O)[nH]c1=O | inactive: 8.09% [at 57.1 µM] | – |
| CC(C)Nc1ccc(Nc2ccccc2)cc1 | – | inconclusive: 50.1 µM [inhibitor, partial curve, poor fit] |
| Cc1ccc(-c2nc3ccccc3c(=O)n2-c2cccnc2)cc1 | – | inconclusive: 89.1 µM [inhibitor, single point] |
| Cc1cc(N(CCCl)CCCl)ccc1C=Cc1ccncn1 | – | inconclusive: 63.1 µM [inhibitor, partial curve, poor fit] |
| COc1ccc(-n2c(O)c(C=NCCN3CCN(C(C)=O)CC3)c(=O)[nH]c2=S)cc1 | – | inconclusive: 28.2 µM [inhibitor, partial curve, poor fit] |
| C=C1C(=O)[C@@]23C[C@H]4[C@@H]5[C@@]6(C)CCC[C@@]57[C@@H]2[C@@H](O)[C@@H]1C[C@H]3[C@H]7N4C6 | – | active: 22.4 µM |
| CC1Cc2cc3c(cc2C(c2ccc(N)cc2)=NN1)OCO3 (centres undefined) | – | inconclusive: 13.4 µM [inhibitor, partial curve] |
| O=c1[nH]c(=S)[nH]c(O)c1N=Nc1ccc2c(c1)OCCO2 | – | inconclusive: 28.2 µM [inhibitor, partial curve, poor fit] |
| CC(C)[C@@]1(NC(=O)[C@@H]2C[C@@H]3c4cccc5[nH]cc(c45)C[C@H]3N(C)C2)O[C@@]2(O)[C@@H]3CCCN3C(=O)[C@H](Cc3ccccc3)N2C1=O | – | inconclusive: 0.0267 µM [inhibitor, full curve, poor fit] |
| O=C(O)COc1ccccc1/C=C1\C(=O)NC(=O)N(CCC2=CCCCC2)C1=O | – | inconclusive: 11.2 µM [inhibitor, partial curve] |
| Cc1cccc(NC(=O)CSc2ccc(-c3ccco3)nn2)c1 | – | inconclusive: 56.2 µM [inhibitor, partial curve, poor fit] |
| Clc1ccc(CCNCc2ccncc2)c(Cl)c1 | – | inconclusive: 50.1 µM [inhibitor, partial curve] |
| Oc1ccc(/C=N/NP(=S)(c2ccccc2)c2ccccc2)c(O)c1O | – | inconclusive: 89.1 µM [inhibitor, single point] |
| CCC(C)n1c(O)c(/C=N/Nc2nc3c(c(=O)n(C)c(=O)n3C)n2C)c(=O)[nH]c1=S (centres undefined) | inactive: 12% [at 11.4 µM] | – |
| C/C1=C\[C@@H](C)C/C=C/[C@H]2[C@@H]3O[C@]3(C)[C@@H](C)[C@H]3[C@H](Cc4c[nH]c5ccccc45)NC(=O)[C@]32C(=O)/C=C/C(=O)[C@@H]1O | – | inconclusive: 50.1 µM [inhibitor, partial curve] |
| COc1ccc(N2C(=O)NC(=O)/C(=C\c3cn(C)c4ccccc34)C2=O)cc1 | – | inconclusive: 50.1 µM [inhibitor, single point] |
| COc1ccc(-n2nc(C(=O)NCC(=O)N3CCC4(CC3)OCCO4)c3ccccc3c2=O)cc1OC | inactive: -2.83% | – |
| O=C(Nc1cc[c]([Sb](=[O])([OH])[OH])cc1)c1ccccc1 | – | inconclusive: 22.4 µM [inhibitor, partial curve, poor fit] |
| Cc1ccc2c(CN3CC=C(c4ccccc4)CC3)cc(=O)oc2c1C | – | inconclusive: 50.1 µM [inhibitor, single point] |
| O=C1CC(=O)N(c2ccccc2F)C(=O)N1 | inactive: -14.4% | – |

| SMILES | activity change, negative = inhibition | Potency |
| --- | --- | --- |
| O=C(CCl)c1ccc(O)c(O)c1 | – | inconclusive: 50.1 µM [inhibitor, partial curve] |
| CC(Cc1ccccc1)NC(N)=O (centres undefined) | inactive: 4.27% | – |
| Cc1ccc(N2C(=O)NC(=O)/C(=C/c3cnn(-c4ccc(C)cc4)c3)C2=O)cc1 | – | inconclusive: 79.4 µM [inhibitor, single point] |
| N#CC(=Cc1ccc(O)c(O)c1)C(N)=S | – | inconclusive: 39.8 µM [inhibitor, partial curve] |
| COc1ccc2nc(/N=C/c3c(O)n(-c4cccc(Cl)c4)c(=O)[nH]c3=O)sc2c1 | – | inconclusive: 44.7 µM [inhibitor, partial curve, poor fit] |
| COc1cc(C2c3cc4c(cc3CC3COC(=O)C32)OCO4)cc(OC)c1OC (centres undefined) | inactive: 3.68% | – |
| CCOC(=O)CSCCOc1ccc(C=C2C(=O)NC(=O)NC2=O)cc1OC | – | inconclusive: 31.6 µM [inhibitor, partial curve] |
| CCOC(=O)c1ccc(N2C(=O)CC(N3CC=C(c4ccc(F)cc4)CC3)C2=O)cc1 (centres undefined) | – | inconclusive: 25.1 µM [inhibitor, single point] |
| O=[N+]([O-])/C=C/c1c(Cl)cccc1Cl | – | inconclusive: 2.51 µM [inhibitor, partial curve, poor fit] |
| O=C(Cn1nc(-c2ccccc2)ccc1=O)N1CCC2(CC1)OCCO2 | inactive: 20.5% | – |
| O=C1CC(N2CC=C(c3ccccc3)CC2)C(=O)N1c1ccc(F)cc1 (centres undefined) | – | inconclusive: 31.6 µM [inhibitor, single point] |
| O=[N+]([O-])c1ccccc1CCl | – | active: 44.7 µM |
| COc1c(/C=C2/C(=O)NC(=O)N(C)C2=O)c(CCN(C)C(=O)c2ccccc2)cc2c1OCO2 | – | inconclusive: 50.1 µM [inhibitor, partial curve, poor fit] |
| COc1ccc(NC2CC(=O)N(C(C)C)C2=O)cc1 (centres undefined) | – | active: 3.55 µM |
| Cc1nn(-c2ccccc2)c2c1C(c1ccc(F)cc1F)C(C#N)=C(N)O2 (centres undefined) | – | inconclusive: 2.82 µM [inhibitor, full curve, poor fit] |
| CCOC(=O)c1c(/N=C/c2c(O)n(-c3ccccc3F)c(=S)[nH]c2=O)sc2c1CCCC2 | – | inconclusive: 39.8 µM [inhibitor, full curve] |
| CNCCc1ccc(O)c(O)c1 | – | inconclusive: 37.7 µM [inhibitor, partial curve, poor fit] and inconclusive: 5.32 µM [inhibitor, full curve] |
| COc1ccc(-c2nc(CS(=O)CC(=O)N3CCC4(CC3)OCCO4)c(C)o2)cc1 (centres undefined) | – | active: 7.08 µM |
| COc1cc(/C=C(/C)[N+](=O)[O-])ccc1OCc1ccccc1Cl | – | inconclusive: 3.98 µM [inhibitor, full curve] |
| O=c1c2ccccc2nc(/C=C/c2ccccc2O)n1-c1ccc(Br)cc1 | inactive: 4.96% | – |

| SMILES | activity change, negative = inhibition | Potency |
| --- | --- | --- |
| COc1ccc(C(=O)Oc2c(CN3CCOCC3)cc(Cl)c3cccnc23)cc1OC | – | inconclusive: 79.4 µM [inhibitor, partial curve, poor fit] |
| Cc1cccc2c1=NC(=O)/C(=C/c1c(O)[nH]c(=O)[nH]c1=O)C=2 | – | inconclusive: 15.8 µM [inhibitor, partial curve, poor fit] |
| O=C(Cc1cc(=O)[nH][nH]1)N/N=C/c1ccccc1Cl | – | inconclusive: 56.2 µM [inhibitor, single point] |
| COc1cc2c(cc1OC)[C@H]1C(=O)c3ccc4c(c3O[C@H]1CO2)C[C@@H](C(C)(C)O)O4 | inactive: -22.4% | – |
| CCC(C)c1ccc(N2C(=O)NC(=O)/C(=C/c3cccn3CCOc3ccc(C)cc3)C2=O)cc1 (centres undefined) | – | inconclusive: 50.1 µM [inhibitor, partial curve, poor fit] |
| CN1C[C@H](C(=O)N[C@]2(C)O[C@@]3(O)C4CCCN4C(=O)[C@H](Cc4ccccc4)N3C2=O)C[C@@H]2c3cccc4[nH]cc(c34)C[C@H]21 (some centres undefined) | – | inconclusive: 29.9 µM [inhibitor, partial curve] |
| CCN(c1ccc(C)cc1C)S(=O)(=O)c1nnc(NC(=O)c2ccco2)s1 | – | inconclusive: 79.4 µM [inhibitor, partial curve] |
| CN1C(=O)C(=Cc2ccc(Sc3ccccc3)o2)C(=O)N(C)C1=O | – | inconclusive: 10 µM [inhibitor, partial curve, poor fit] |
| CC[C@H]1CC2CN3CCc4c([nH]c5cc(OC)ccc45)[C@](C(=O)OC)(C2)[C@H]13 | – | inconclusive: 70.8 µM [inhibitor, partial curve, poor fit] |
| Nc1c(C(=O)NCc2ccco2)c2nc3ccccc3nc2n1CCN1CCOCC1 | – | inconclusive: 1.41 µM [inhibitor, partial curve, poor fit] |
| C[C@H]1C[C@@H](C)C(=O)[C@@H]([C@H](O)CC2CC(=O)NC(=O)C2)C1 | inactive: 15.9% | – |
| O=[N+]([O-])c1cccc2c([As](=O)(O)O)cccc12 | – | inconclusive: 50.1 µM [inhibitor, partial curve, poor fit] |
| COc1cc(C(=O)NC(=S)N2C[C@H]3C[C@H](C2)c2cccc(=O)n2C3)cc(OC)c1OC | – | inconclusive: 14.1 µM [inhibitor, single point] |
| CC(=O)NC(Cc1ccc(N(CCCl)CCCl)cc1)C(=O)NC(CC(C)C)C(=O)O (centres undefined) | – | inconclusive: 15.8 µM [inhibitor, single point] |
| COc1ccc(OC)c(N2C(=O)NC(=O)/C(=C/c3ccc([N+](=O)[O-])s3)C2=O)c1 | – | inconclusive: 22.4 µM [inhibitor, partial curve] |
| O=c1[nH]c(=S)[nH]c(O)c1/C=C1\C=Nc2ccccc21 | – | inconclusive: 25.1 µM [inhibitor, partial curve, poor fit] |
| NC(=O)c1ccc(N=Cc2c(O)n(Cc3ccco3)c(=O)[nH]c2=O)cc1 | – | inconclusive: 50.1 µM [inhibitor, partial curve] |
| COc1ccc(CN2C(=O)NC(=O)/C(=C/c3ccc(OC)c(OC)c3OC)C2=O)cc1 | – | inconclusive: 10 µM [inhibitor, partial curve, poor fit] |
| C#C[C@]1(O)CCC2C3C(=O)C=C4C(Cl)=CCC[C@]4(C)C3CC[C@@]21C (some centres undefined) | – | inconclusive: 50.1 µM [inhibitor, partial curve] |
